Measured values from PubChem BioAssay AID686971 (National Center for Advancing Translational Sciences (NCATS), 2013).
In all, about 360,000 compounds went through this assay and about 7,500 (2.1%) were called active. Inconclusive results, whose numbers are uncertain, are shown with a selection of clear calls. Calls follow the shape of the dose curve; as a rule, active = well fitted cell-killing curve with a large enough effect; inconclusive = small, poorly fitted or top-dose-only effect, or effect the other way, or another doubt; inactive = no such curve, though single readings can be large or run the other way. Potencies of inconclusive entries are left out as doubtful fits.

assay: qHTS for induction of synthetic lethality in tumor cells producing 2HG: qHTS for the HT-1080-IDH1KD cell line; details: HT-1080 IDH1 knockdown viability, ATP luminescence, 48 h; activity, negative = toxicity: at 46.1 µM (top of the series) unless noted;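 as to activity, negative = toxicity: 0% = DMSO wells and -100% = cell-free medium wells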
Summary of the method: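 After a 2 h attachment period, IDH1KD HT-1080 cells took pin-transferred compound for 48 h at 37 °C; ATP-based luminescence after 10 min room-temperature reagent incubation reported viability.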
Potency is read from the fitted curve at half-maximal effect; tags tell the direction and shape of the fitted curve.

| Structure (SMILES) | activity, negative = toxicity | Potency |
| --- | --- | --- |
| COc1cc(NC(=O)COC(=O)CNC(=O)C2CCCCC2)cc(OC)c1 | inactive: 1.82% | – |
| CCn1c(=O)cc(OCC(=O)NCCCN2CC(C)CC(C)C2)c2ccccc21 (stereo unspecified) | – | inconclusive [cytotoxic, single point] |
| CCCN(CC(=O)Nc1ccccc1C)C(=O)CCl | – | active: 4.11 µM |
| COc1ccccc1C1CCN(c2ccc([N+](=O)[O-])c(OC)c2)CC1 | – | inconclusive [cytotoxic, single point] |
| CCOC(=O)C1=C(C)C/C(=N\NC(=O)c2ccccc2O)CC1 | – | inconclusive [cytotoxic, single point] |
| Cc1cc(OCCCCn2ccnc2)cc(C)c1Cl | – | inconclusive [cytotoxic, single point] |
| CC(C)CC(=O)/C=C/n1c(=S)oc2ccccc21 | – | inconclusive [cytotoxic, single point] |
| CCC(=O)N1N=C(c2c(-c3ccccc3)c3cc(Cl)ccc3[nH]c2=O)CC1c1ccco1 (stereo unspecified) | – | inconclusive [cytotoxic, single point] |
| S=C(c1ccccc1)N1CCN(C(=S)c2ccccc2)CC1 | inactive: 11.5% | – |
| CCN1CCN(S(=O)(=O)c2ccc(Cl)c(C(=O)N(C)Cc3ccc(C(C)(C)C)cc3)c2)CC1 | – | inconclusive [cytotoxic, single point] |
| COCCCNC(=O)CN1C(=O)CSc2ccc(S(=O)(=O)N3CCOCC3)cc21 | inconclusive: 0% [cytotoxic] | – |
| COc1cc(/C=N/NC(=O)c2sc3nc(C)cc(C)c3c2N)ccc1O | – | inconclusive [cytotoxic, single point] |
| CCC(C)Sc1cc(C(F)(F)F)c(C(=O)Nc2ccc(Cl)cc2)cn1 (stereo unspecified) | – | active: 23.1 µM |
| Nc1nc2ccccc2n1Cc1ccc(Cl)c(Cl)c1 | – | inconclusive [cytotoxic, single point] |
| CN(c1ccccc1)S(=O)(=O)c1ccc(C(=O)Nc2nnc(C3=COCCO3)o2)cc1 | – | inconclusive [cytotoxic, single point] |
| Clc1ccc2[nH]cc(-c3nnnn3-c3ccccc3)c2c1 | – | inconclusive [cytotoxic, partial curve] |
| O=[N+]([O-])c1ccc(-c2nc(Cl)c3c(n2)CCCC3)o1 | – | inconclusive [cytotoxic, single point] |
| COc1ccc(-n2c(NN)nc3sc4c(c3c2=O)CCCC4)cc1 | inconclusive: -30.1% [cytotoxic] | – |
| N#Cc1ccc(-c2cccnc2)nc1SCC(=O)c1ccccc1 | – | inconclusive [cytotoxic, partial curve] |
| Cc1cccc(C)c1NC(=O)c1ccc(-c2ccc(Cl)cc2Cl)o1 | – | inconclusive [cytotoxic, single point] |
| CCOC(=O)c1c(NC(=O)c2c(-c3ccccc3)noc2C)sc(C)c1-c1ccccc1 | – | inconclusive [cytotoxic, full curve] |
| CCN(CC)C1CC(=O)N(c2cccc(Cl)c2)C1=O (stereo unspecified) | inconclusive: 32.9% | – |
| O=S(=O)(Nc1ccc2c(c1)OCCO2)c1cnc[nH]1 | inactive: 10.8% | – |
| COC(=O)c1ccc2nc(C3CCCCC3)c(Cc3ccccc3)n2c1 | – | inconclusive [cytotoxic, partial curve, poor fit] |

| Structure (SMILES) | activity, negative = toxicity | Potency |
| --- | --- | --- |
| N/C(Cn1cncn1)=N\OC(=O)c1ccc(Cl)cc1Cl | inactive: -4.55% | – |
| COc1ccc(C/C(O)=C(\C#N)c2nc3ccccc3s2)cc1 | – | inconclusive [cytotoxic, single point] |
| Clc1ccc2[nH]c3c(c2c1)CNCC3 | – | inconclusive [cytotoxic, single point] |
| COc1ccc(N2C(N)=NC(N)=NC2(C)C)cc1 | – | active: 8.2 µM |
| O=C(COC(=O)COc1cccc(C(F)(F)F)c1)NC(=O)NC1CCCCC1 | inactive: -3.93% | – |
| CC(C)(C)c1ccc(CC(=O)N2CCC2(C)C(=O)Nc2cccc3c2CCCC3)cc1 (stereo unspecified) | – | inconclusive [cytotoxic, single point] |
| COc1ccc(OC)c(S(=O)(=O)Nc2ccc(Oc3ccccc3)cc2)c1 | – | inconclusive [cytotoxic, single point] |
| Nc1n[nH]c(-c2ccccc2)n1 | inconclusive: 30.8% | – |
| Clc1ccccc1N=C1NN=C(c2cccs2)CS1 | – | inconclusive [cytotoxic, single point] |
| CN(C)Cc1c(O)ccc2oc(Cc3ccccc3)cc12 | – | inconclusive [cytotoxic, single point] |
| COc1cc(Nc2c3c(nc4ccccc24)CCC3)cc(OC)c1OC | – | active: 2.06 µM |
| O=C(C1CC1)N1c2ccccc2Sc2ccccc21 | – | active: 18.4 µM |
| CCOC(=O)Nc1ccc2c(c1)N(C(=O)CCN(CC)CC)c1ccccc1S2=O (stereo unspecified) | – | active: 25.9 µM |
| CC1CCCC(NCC(O)COC(c2ccc(F)cc2)c2ccc(F)cc2)C1C (stereo unspecified) | – | active: 20.6 µM |
| Cc1ccc(SCc2[nH]nc3c2C2(C(=O)N(C)c4ccccc42)C(C#N)=C(N)O3)cc1 (stereo unspecified) | – | inconclusive [cytotoxic, single point] |
| COc1ccc(-c2nc(NC(=O)C3CCN(c4nc5ccccc5o4)CC3)sc2C)cc1 | – | inconclusive [cytotoxic, partial curve, poor fit] |
| O=S1(=O)c2ccc(Br)cc2N2CCC[C@@H]2CN1Cc1ccc(Cl)cc1 | inactive: 5.06% | – |
| COc1ccc(S(=O)(=O)NCC2CCCN(C(=O)CCSC)C2)cc1 (stereo unspecified) | inactive: 3.02% | – |
| COc1cc(CNc2ncnc3c2ncn3[C@H]2CN(Cc3ccc(C(=O)O)cc3)C[C@@H](CO)O2)cc(OC)c1OC | – | inconclusive [rising, single point] |
| O=C(CCNC(=O)c1ccccc1Cl)NN=Cc1ccccc1[N+](=O)[O-] | inactive: 0.78% | – |
| Cc1cccc(OCC(=O)NCCCNC(=O)c2cccnc2)c1 | – | inconclusive [cytotoxic, single point] |
| Cn1cnnc1Sc1ccc(/C=C/C(=O)c2ccc(O)cc2)cc1[N+](=O)[O-] | – | active: 18.4 µM |
| CCCCCC(=O)NC(NC(=S)Nc1ccc(S(N)(=O)=O)cc1)C(Cl)(Cl)Cl (stereo unspecified) | – | inconclusive [cytotoxic, single point] |
| CCOc1cccc(C(=O)Nc2ccc3oc(Cc4ccc(Cl)cc4)nc3c2)c1 | – | inconclusive [cytotoxic, partial curve] |

| Structure (SMILES) | activity, negative = toxicity | Potency |
| --- | --- | --- |
| Cc1ccc(Cn2ncc(Cl)c(Cl)c2=O)cc1 | – | inconclusive [cytotoxic, single point] |
| COc1ccc(N(C(=O)c2snc(C(N)=O)c2N)C(C(=O)NCc2ccc(F)cc2)c2ccc(O)cc2)cc1 (stereo unspecified) | – | inconclusive [cytotoxic, partial curve] |
| CCCCCCSc1ccc(-c2nc3ccc(C)cn3c2NCCCC)cc1OC | – | inconclusive [cytotoxic, single point] |
| COc1ccc(C(=O)Nc2ccc(NC(=O)C(C)C)nc2)cc1 | – | inconclusive [rising, single point] |
| OC(c1ccccc1)(c1ccccc1)C1CCN(C(=S)NCCc2ccccc2)CC1 | – | inconclusive [cytotoxic, single point] |
| CC(C)c1ccc(NC(=O)N2CCc3nc(NCc4cccc(Oc5ccccc5)c4)ncc3C2)cc1 | – | inconclusive [cytotoxic, single point] |
| Cc1cc(N2CCOCC2)nc2ccc(NC(=O)CCC(=O)N3CCN(c4cccc(C(F)(F)F)c4)CC3)cc12 | – | inconclusive [cytotoxic, partial curve] |
| Clc1ccc(-c2n[nH]c3c2CCC3)cc1Cl | – | inconclusive [cytotoxic, single point] |
| S=C(NCc1cccnc1)Nc1ccc(Oc2ccccc2)cc1 | inactive: -9.26% | – |
| O=C(COc1ccccc1)Nc1cc(S(=O)(=O)N2CCOCC2)ccc1N1CCCC1 | inactive: 20.5% | – |
| COc1cccc(Nc2nc(-c3ccc4c(c3)OCCO4)cs2)c1 | – | inconclusive [cytotoxic, single point] |
| O=c1[nH]c(CSc2nnc(Cc3ccccc3)o2)nc2ccccc12 | – | inconclusive [cytotoxic, single point] |
| Cc1nnc2c3ccccc3c(-c3cccs3)nn12 | inconclusive: -31.6% [cytotoxic] | – |
| CCCCCCCn1c(NC(=O)CC)nc2ccccc21 | – | inconclusive [cytotoxic, partial curve] |
| O=C(Cn1nc(C(=O)O)c2ccccc2c1=O)Nc1cc(S(=O)(=O)N2CCOCC2)ccc1Cl | inactive: 4.14% | – |
| COc1cccc(-c2cc(C(F)(F)F)n3ncc(C(=O)NCC4CCCO4)c3n2)c1 (stereo unspecified) | – | inconclusive [cytotoxic, single point] |
| CC(=O)N(c1nnc(-c2ccc(C)cc2)s1)C1CCCC1 | inactive: 2.39% | – |
| CCCn1c(NC(=O)CCNC(=O)c2ccccc2Cl)nc2ccccc21 | inactive: -0.861% | – |
| C=CCN(CC=C)S(=O)(=O)c1ccc(C(=O)Nc2nnc(COC)o2)cc1 | – | inconclusive [cytotoxic, single point] |
| CCn1c(-c2ccc(Cl)cc2)n[nH]c1=S | – | inconclusive [cytotoxic, single point] |
| O=C(Oc1cccc2ccccc12)c1cc(Cl)nc2ccccc12 | inactive: 6.1% | – |
| O=C(N/N=C/c1c[nH]c2ccccc12)c1cc(-c2ccc(-c3ccccc3)cc2)n[nH]1 | – | active: 12.6 µM |
| Cc1nn(Cc2cccc(C(=O)N3CCCC(C)C3)c2)c(C)c1[N+](=O)[O-] (stereo unspecified) | – | inconclusive [cytotoxic, partial curve] |
